Experimental data published in a collection of fitness landscapes (doi:10.1016/j.celrep.2020.107928).
Over roughly 81,000 sequences, “one-hybrid fitness for binding NBS DNA” has its median near -0.1; the highest 2% begin near 0.36. The list shows a part of the results.

B1: Caulobacter ParB omega fusion; a variant is named by its letters at X, in order, B8GW30 (parent)
chain: MESVVVGEPGMSEGRRGLGRGLSALLGEVDAAPAQAPGEQLGGSREAPIEILQRNPDQPRRTFREEDLEDLSNSIREKGVLQPILVRPSPDTAGEYQIVAGERAWRAAQRAGLKTVPIMVRELDDLAVLEIGIIENVQRADLNVLEEALSYKVLMEKFERTQENIAQTIGKSXSHVANXMRLLXLPDEVQSYLVSGELTAXHARAIAAAADPVALAKQIIEGGLSVRETEALARKAPNLSAGKSKGGRPPRVKDTDTQALESDLSSVLGLDVSIDHRGSTGTLTITYATLEQLDDLCNRLTRGI

Variants of: B1
Assay: one-hybrid fitness for binding NBS DNA (the Noc-binding site; scaled: cognate 1, non-cognate 0); higher = stronger binding
Conditions: with NBS DNA site
Summary of the method: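 Selection: bacterial one-hybrid in E. coli USO, HIS3 reporter with the site 19 bp from the promoter, 48 hours at 37°C on M9-minus-histidine plus 0.1 mM IPTG and 5 mM 3-AT. Libraries were Caulobacter ParB with four randomised specificity codons, sequenced on Illumina before and after selection. Fitness is the rescaled log change in variant-to-wild-type read ratio, anchored to the cognate and non-cognate sites.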

Variant	one-hybrid fitness for binding NBS DNA
QRDT	0.671
DRPF	≤ 0.2
ALSM	≤ 0.2
TWFP	≤ 0.2
RFGH	≤ 0.2
RWWS	≤ 0.2
HCRG	≤ 0.2
SPQK	≤ 0.2
RQMM	≤ 0.2
LDMP	≤ 0.2
FLFV	≤ 0.2
QPDI	≤ 0.2
NAEC	≤ 0.2
AIGY	≤ 0.2
PFHG	≤ 0.2
AAKS	≤ 0.2
DPTY	≤ 0.2
ASWS	≤ 0.2
FPNC	≤ 0.2
SSKH	≤ 0.2
MDAT	≤ 0.2
QVIQ	≤ 0.2
GIRC	≤ 0.2
LSIN	≤ 0.2
HDLY	≤ 0.2

Variant	one-hybrid fitness for binding NBS DNA
APGS	≤ 0.2
TAFF	0.261
VSGI	≤ 0.2
IGSI	≤ 0.2
FSPT	≤ 0.2
IVRR	≤ 0.2
LVFS	≤ 0.2
DAGW	≤ 0.2
KIGR	≤ 0.2
LQKV	≤ 0.2
TAPY	≤ 0.2
FPRH	≤ 0.2
GQAT	≤ 0.2
KALG	≤ 0.2
KRWW	≤ 0.2
SNNP	≤ 0.2
CLDR	≤ 0.2
PIQR	≤ 0.2
KVNE	≤ 0.2
RIQQ	≤ 0.2
LSTR	≤ 0.2
PNAV	≤ 0.2
VSAM	≤ 0.2
YKPF	≤ 0.2
MSYG	≤ 0.2

Variant	one-hybrid fitness for binding NBS DNA
SGAT	≤ 0.2
QTEV	≤ 0.2
WQNS	≤ 0.2
WFPS	≤ 0.2
IGDS	≤ 0.2
PEAS	≤ 0.2
YGST	≤ 0.2
RMMY	≤ 0.2
DGDT	≤ 0.2
RNPF	≤ 0.2
HLTK	≤ 0.2
PECV	≤ 0.2
MLKS	≤ 0.2
QEHR	≤ 0.2
EPNG	≤ 0.2
TFGF	≤ 0.2
RIVH	≤ 0.2
KNYR	≤ 0.2
KNLK	≤ 0.2
FQDR	≤ 0.2
VEIC	≤ 0.2
CFHV	≤ 0.2
KYKG	≤ 0.2
LDQL	≤ 0.2
HNLA	≤ 0.2

Variant	one-hybrid fitness for binding NBS DNA
CTEA	≤ 0.2
YAQG	≤ 0.2
VGMG	≤ 0.2
RMTG	≤ 0.2
MGCL	≤ 0.2
NDNN	≤ 0.2
CTCE	≤ 0.2
WTIC	≤ 0.2
SQVH	≤ 0.2
RTDR	0.282
SQRV	≤ 0.2
GENQ	≤ 0.2
AVLK	≤ 0.2
QIIS	≤ 0.2
TNST	≤ 0.2
CYAR	≤ 0.2
ESTQ	≤ 0.2
FKLR	≤ 0.2
PWVS	≤ 0.2
SQQT	≤ 0.2
DQSG	≤ 0.2
LMHV	≤ 0.2
QAEP	≤ 0.2
VKDG	≤ 0.2
DERG	≤ 0.2

Variant	one-hybrid fitness for binding NBS DNA
RKGK	≤ 0.2
QFTC	≤ 0.2
KQTD	≤ 0.2
QIAF	≤ 0.2
QDSS	≤ 0.2
NWRT	≤ 0.2
THTN	≤ 0.2
NGLW	≤ 0.2
VMGG	≤ 0.2
QHKL	0.232
GGFE	≤ 0.2
CSVC	≤ 0.2
LPIC	≤ 0.2
RDKI	≤ 0.2
PQNG	≤ 0.2
IRSE	≤ 0.2
GIKM	≤ 0.2
NRYT	≤ 0.2
ITRD	≤ 0.2
PAFA	≤ 0.2
IIYN	≤ 0.2
DTQV	≤ 0.2
HRGP	≤ 0.2
PCDK	≤ 0.2
MPNF	≤ 0.2

Variant	one-hybrid fitness for binding NBS DNA
DQSA	≤ 0.2
LNPR	≤ 0.2
NSQE	≤ 0.2
GITT	≤ 0.2
RQQE	≤ 0.2
SMDN	≤ 0.2
QKPS	≤ 0.2
YHCG	≤ 0.2
NKDT	≤ 0.2
RKFI	≤ 0.2
DYIR	≤ 0.2
HIWE	≤ 0.2
HPIA	≤ 0.2
NEGN	≤ 0.2
KVSK	≤ 0.2
TLAP	≤ 0.2
SIPW	≤ 0.2
FMSG	≤ 0.2
GFLG	≤ 0.2
PQTM	≤ 0.2
VSCA	≤ 0.2
NDNR	≤ 0.2
PDGI	≤ 0.2
SVIV	≤ 0.2
TSYC	≤ 0.2

Variant	one-hybrid fitness for binding NBS DNA
FDPG	≤ 0.2
TPCG	≤ 0.2
NWER	≤ 0.2
RAHF	≤ 0.2
TNWA	≤ 0.2
QIRF	≤ 0.2
RYFS	≤ 0.2
NLTT	≤ 0.2
SYLH	≤ 0.2
YDFW	≤ 0.2
CCKR	≤ 0.2
RRRA	0.671
TMYI	≤ 0.2
GHLS	≤ 0.2
GLAW	≤ 0.2
AHHV	≤ 0.2
RVRI	≤ 0.2
HAAW	≤ 0.2
RTYP	≤ 0.2
PAKM	≤ 0.2
KRSR	0.561
PTTN	≤ 0.2
YLQW	≤ 0.2
YSQV	≤ 0.2
VSCK	≤ 0.2

Variant	one-hybrid fitness for binding NBS DNA
RWMR	≤ 0.2
PDYS	≤ 0.2
HQGS	≤ 0.2
EYHR	≤ 0.2
TITV	≤ 0.2
FSHS	≤ 0.2
KCIT	≤ 0.2
LTWF	≤ 0.2
YWTS	≤ 0.2
PPII	≤ 0.2
PKGI	≤ 0.2
HSIG	≤ 0.2
FTPF	≤ 0.2
KNSM	≤ 0.2
YRPK	≤ 0.2
QRVQ	0.511
DNNS	≤ 0.2
RRTM	0.291
LHTG	≤ 0.2
ILKT	≤ 0.2
